Experimental data as given in publication PMC9911399, “Two distinct binding modes provide the RNA-binding protein RbFox with extraordinary sequence specificity”.
Changes are numbered by the printed parent chain; changes in the protein carry UniProt numbers. This is one part of the list.

T1: RBFOX1 RRM (Homo sapiens, UniProt Q9NWB1 109-208)
T1 sequence: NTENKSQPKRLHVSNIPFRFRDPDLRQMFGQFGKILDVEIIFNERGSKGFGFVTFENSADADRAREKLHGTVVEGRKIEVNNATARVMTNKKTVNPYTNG

B1: GUGAACC (DNA:RNA)
RNA: GGGAGACCGGAAUUCAGAUUGUCCGUGAACCUUAAAUCCCGUCGUAGCCACCA
DNA 1: CAATCTGAATTCCGGTCTCCC
DNA 2: TGGTGGCTACGACGGGATT
B2: UGAAAAU (DNA:RNA)
RNA: B1 RNA with G25U, U26G, G27A, C30A, C31U
DNA 1: CAATCTGAATTCCGGTCTCCC
DNA 2: TGGTGGCTACGACGGGATT
B3: GAUUUUC (DNA:RNA)
RNA: B1 RNA with U26A, G27U, A28U, A29U, C30U
DNA 1: CAATCTGAATTCCGGTCTCCC
DNA 2: TGGTGGCTACGACGGGATT
B4: CUGGGUU (DNA:RNA)
RNA: B1 RNA with G25C, A28G, A29G, C30U, C31U
DNA 1: CAATCTGAATTCCGGTCTCCC
DNA 2: TGGTGGCTACGACGGGATT
B5: AGGAAUC (DNA:RNA)
RNA: B1 RNA with G25A, U26G, C30U
DNA 1: CAATCTGAATTCCGGTCTCCC
DNA 2: TGGTGGCTACGACGGGATT
B6: CAACUUA (DNA:RNA)
RNA: GGGAGACCGGAAUUCAGAUUGUCCCAACUUAUUAAAUCCCGUCGUAGCCACCA
DNA 1: CAATCTGAATTCCGGTCTCCC
DNA 2: TGGTGGCTACGACGGGATT
B7: AUGGGUU (DNA:RNA)
RNA: B1 RNA with G25A, A28G, A29G, C30U, C31U
DNA 1: CAATCTGAATTCCGGTCTCCC
DNA 2: TGGTGGCTACGACGGGATT
B8: GAGGUAU (DNA:RNA)
RNA: B6 RNA with C25G, A27G, C28G, U30A, A31U
DNA 1: CAATCTGAATTCCGGTCTCCC
DNA 2: TGGTGGCTACGACGGGATT
B9: UGGCCUG (DNA:RNA)
RNA: B6 RNA with C25U, A26G, A27G, U29C, A31G
DNA 1: CAATCTGAATTCCGGTCTCCC
DNA 2: TGGTGGCTACGACGGGATT
B10: AGGGAUC (DNA:RNA)
RNA: B1 RNA with G25A, U26G, A28G, C30U
DNA 1: CAATCTGAATTCCGGTCTCCC
DNA 2: TGGTGGCTACGACGGGATT
B11: UAGCGCG (DNA:RNA)
RNA: B6 RNA with C25U, A27G, U29G, U30C, A31G
DNA 1: CAATCTGAATTCCGGTCTCCC
DNA 2: TGGTGGCTACGACGGGATT
B12: CAUCAAC (DNA:RNA)
RNA: B6 RNA with A27U, U29A, U30A, A31C
DNA 1: CAATCTGAATTCCGGTCTCCC
DNA 2: TGGTGGCTACGACGGGATT
B13: AUCUUGU (DNA:RNA)
RNA: B6 RNA with C25A, A26U, A27C, C28U, U30G, A31U
DNA 1: CAATCTGAATTCCGGTCTCCC
DNA 2: TGGTGGCTACGACGGGATT
B14: CGCUGCG (DNA:RNA)
RNA: B6 RNA with A26G, A27C, C28U, U29G, U30C, A31G
DNA 1: CAATCTGAATTCCGGTCTCCC
DNA 2: TGGTGGCTACGACGGGATT
B15: ACCCAAC (DNA:RNA)
RNA: B1 RNA with G25A, U26C, G27C, A28C, C30A
DNA 1: CAATCTGAATTCCGGTCTCCC
DNA 2: TGGTGGCTACGACGGGATT
B16: ACGACCC (DNA:RNA)
RNA: B1 RNA with G25A, U26C, A29C
DNA 1: CAATCTGAATTCCGGTCTCCC
DNA 2: TGGTGGCTACGACGGGATT
B17: CCUUGCC (DNA:RNA)
RNA: B1 RNA with G25C, U26C, G27U, A28U, A29G
DNA 1: CAATCTGAATTCCGGTCTCCC
DNA 2: TGGTGGCTACGACGGGATT
B18: AUAGUUG (DNA:RNA)
RNA: B6 RNA with C25A, A26U, C28G, A31G
DNA 1: CAATCTGAATTCCGGTCTCCC
DNA 2: TGGTGGCTACGACGGGATT
B19: GAGUAUU (DNA:RNA)
RNA: B1 RNA with U26A, A28U, C30U, C31U
DNA 1: CAATCTGAATTCCGGTCTCCC
DNA 2: TGGTGGCTACGACGGGATT
B20: CUGUAUC (DNA:RNA)
RNA: B1 RNA with G25C, A28U, C30U
DNA 1: CAATCTGAATTCCGGTCTCCC
DNA 2: TGGTGGCTACGACGGGATT
B21: UUAGUAA (DNA:RNA)
RNA: B6 RNA with C25U, A26U, C28G, U30A
DNA 1: CAATCTGAATTCCGGTCTCCC
DNA 2: TGGTGGCTACGACGGGATT
B22: CACCACA (DNA:RNA)
RNA: B6 RNA with A27C, U29A, U30C
DNA 1: CAATCTGAATTCCGGTCTCCC
DNA 2: TGGTGGCTACGACGGGATT
B23: UGUUAUU (DNA:RNA)
RNA: B6 RNA with C25U, A26G, A27U, C28U, U29A, A31U
DNA 1: CAATCTGAATTCCGGTCTCCC
DNA 2: TGGTGGCTACGACGGGATT
B24: GAGUUAU (DNA:RNA)
RNA: B6 RNA with C25G, A27G, C28U, U30A, A31U
DNA 1: CAATCTGAATTCCGGTCTCCC
DNA 2: TGGTGGCTACGACGGGATT
B25: UGAUGAG (DNA:RNA)
RNA: B6 RNA with C25U, A26G, C28U, U29G, U30A, A31G
DNA 1: CAATCTGAATTCCGGTCTCCC
DNA 2: TGGTGGCTACGACGGGATT
B26: AUUUGAA (DNA:RNA)
RNA: B6 RNA with C25A, A26U, A27U, C28U, U29G, U30A
DNA 1: CAATCTGAATTCCGGTCTCCC
DNA 2: TGGTGGCTACGACGGGATT
B27: UCACAGG (DNA:RNA)
RNA: B6 RNA with C25U, A26C, U29A, U30G, A31G
DNA 1: CAATCTGAATTCCGGTCTCCC
DNA 2: TGGTGGCTACGACGGGATT
B28: GCCAUGG (DNA:RNA)
RNA: B1 RNA with U26C, G27C, A29U, C30G, C31G
DNA 1: CAATCTGAATTCCGGTCTCCC
DNA 2: TGGTGGCTACGACGGGATT
B29: CCCGUCA (DNA:RNA)
RNA: B6 RNA with A26C, A27C, C28G, U30C
DNA 1: CAATCTGAATTCCGGTCTCCC
DNA 2: TGGTGGCTACGACGGGATT
B30: AAAUCCU (DNA:RNA)
RNA: B6 RNA with C25A, C28U, U29C, U30C, A31U
DNA 1: CAATCTGAATTCCGGTCTCCC
DNA 2: TGGTGGCTACGACGGGATT
B31: GUGCACG (DNA:RNA)
RNA: B1 RNA with A28C, C31G
DNA 1: CAATCTGAATTCCGGTCTCCC
DNA 2: TGGTGGCTACGACGGGATT

Biological target: T1, RBFOX1 RRM
Assay: EMSA; HiTS-Eq, 1 nM pool, 10 min; buffer printed only for the single-RNA assays: 10 mM Tris pH 7.5, 150 mM NaCl, 3.4 mM EDTA, 0.001% NP-40, 30 C
Conditions: tags: His6 N-terminal (pET28a); label: 5' 32P
In short: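 These values rest on relative association constants, computed from read-count changes of each RNA species versus the control reaction and normalised to the cognate motif. Reads came from free RNA recovered by 8% native PAGE after purified RbFox RRM (wild type or mutant) at increasing concentrations was equilibrated for 10 min in 50 µL with 1 nM of a 5′-radiolabelled pool with 7 randomized nucleotides and DNA-annealed flanks.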

Binder	binding signal
B1	0.00945 KA relative to UGCAUGU
B2	0.00884 KA relative to UGCAUGU
B3	0.0122 KA relative to UGCAUGU
B4	0.0262 KA relative to UGCAUGU
B5	0.0141 KA relative to UGCAUGU
B6	0.000392 KA relative to UGCAUGU
B7	0.021 KA relative to UGCAUGU
B8	0.0145 KA relative to UGCAUGU
B9	0.0426 KA relative to UGCAUGU
B10	0.0234 KA relative to UGCAUGU
B11	0.0194 KA relative to UGCAUGU
B12	0.000553 KA relative to UGCAUGU
B13	0.00964 KA relative to UGCAUGU
B14	0.0186 KA relative to UGCAUGU
B15	0.000159 KA relative to UGCAUGU
B16	0.000155 KA relative to UGCAUGU

Binder	binding signal
B17	0.0123 KA relative to UGCAUGU
B18	0.0115 KA relative to UGCAUGU
B19	0.00773 KA relative to UGCAUGU
B20	0.00517 KA relative to UGCAUGU
B21	0.00926 KA relative to UGCAUGU
B22	0.00141 KA relative to UGCAUGU
B23	0.00803 KA relative to UGCAUGU
B24	0.00747 KA relative to UGCAUGU
B25	0.0266 KA relative to UGCAUGU
B26	0.012 KA relative to UGCAUGU
B27	0.00827 KA relative to UGCAUGU
B28	0.0159 KA relative to UGCAUGU
B29	0.00389 KA relative to UGCAUGU
B30	0.00113 KA relative to UGCAUGU
B31	0.62 KA relative to UGCAUGU
